# The other results are listed elsewhere or left out.
# B1: CPA (Cicer arietinum) (protein)
# chain: MAFSYLNLVLVTLTTLFFLQTTKVKSQKSVSFHITNFTISRPSITLQGTAEFLPNVLLLNDIEHPVFVVGRALYSKPITLWNNKTGKVASFVTSFTFDVQDLKKTVPGHGLVFFLAPSGSEIPFSSDGGNLGVVDGKNAFNRFVGVEFDNFVNSWDPKYSHVGINVNSLISTKTVKWNRVSGELVKVSIVYDSVSTTLTVIVTYKNGQISILSQLVDLKAVLPDTVNIGFSASTTLVSPRQLHNIHSWSFTSTFET
# What was measured:
# Assay in all cases: glycan array binding signal (z-score within array); higher = stronger binding
# Conditions in all cases: glycan notation: IUPAC condensed, linker removed
# [1] = molecular target: Gal(b1-4)Glc6S
# Procedure, shortened: (§1)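 Negative Z-scores can be read as non-binding. The Z-score is calculated within each array and then averaged across arrays of one protein sequence at different concentrations or buffers and across linkers. Arrays, 3228 in all, were curated from the Consortium for Functional Glycomics database and kept only where the protein sequence was available.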
# [2] = molecular target: Gal(b1-4)GlcNAc
# Procedure, shortened: as §1
# [3] = molecular target: Gal(b1-4)GlcNAc(a1-6)Gal(b1-4)GlcNAc
# Procedure, shortened: as §1
# [4] = molecular target: Gal(b1-4)GlcNAc(b1-2)Man
# Procedure, shortened: as §1
# [5] = molecular target: Gal(b1-4)GlcNAc(b1-2)Man(a1-3)Man(b1-4)GlcNAc(b1-4)GlcNAc
# Procedure, shortened: as §1
# [6] = molecular target: Gal(b1-4)GlcNAc(b1-2)Man(a1-3)[Gal(b1-4)GlcNAc(b1-2)Man(a1-6)]Man(b1-4)GlcNAc(b1-4)GlcNAc
# Procedure, shortened: as §1
# [7] = molecular target: Gal(b1-4)GlcNAc(b1-2)Man(a1-3)[Gal(b1-4)GlcNAc(b1-2)Man(a1-6)]Man(b1-4)GlcNAc(b1-4)[Fuc(a1-6)]GlcNAc
# Procedure, shortened: as §1
# [8] = molecular target: Gal(b1-4)GlcNAc(b1-2)Man(a1-3)[Gal(b1-4)GlcNAc(b1-2)Man(a1-6)][Gal(b1-4)GlcNAc(b1-4)]Man(b1-4)GlcNAc(b1-4)[Fuc(a1-6)]GlcNAc
# Procedure, shortened: as §1
# [9] = molecular target: Gal(b1-4)GlcNAc(b1-2)Man(a1-3)[Gal(b1-4)GlcNAc(b1-2)Man(a1-6)][GlcNAc(b1-4)]Man(b1-4)GlcNAc(b1-4)[Fuc(a1-6)]GlcNAc
# Procedure, shortened: as §1
# [10] = molecular target: Gal(b1-4)GlcNAc(b1-2)Man(a1-3)[GlcNAc(b1-2)Man(a1-6)]Man(b1-4)GlcNAc(b1-4)GlcNAc
# Procedure, shortened: as §1
# [11] = molecular target: Gal(b1-4)GlcNAc(b1-2)Man(a1-3)[GlcNAc(b1-4)][Gal(b1-4)GlcNAc(b1-2)Man(a1-6)]Man(b1-4)GlcNAc(b1-4)GlcNAc
# Procedure, shortened: as §1
# [12] = molecular target: Gal(b1-4)GlcNAc(b1-2)Man(a1-3)[Man(a1-6)]Man(b1-4)GlcNAc(b1-4)GlcNAc
# Procedure, shortened: as §1
# [13] = molecular target: Gal(b1-4)GlcNAc(b1-2)Man(a1-6)Man(b1-4)GlcNAc(b1-4)GlcNAc
# Procedure, shortened: as §1
# [14] = molecular target: Gal(b1-4)GlcNAc(b1-2)Man(a1-6)[GlcNAc(b1-2)Man(a1-3)]Man(b1-4)GlcNAc(b1-4)GlcNAc
# Procedure, shortened: as §1
# [15] = molecular target: Gal(b1-4)GlcNAc(b1-2)Man(a1-6)[Man(a1-3)]Man(b1-4)GlcNAc(b1-4)GlcNAc
# Procedure, shortened: as §1
# [16] = molecular target: Gal(b1-4)GlcNAc(b1-2)[Gal(b1-4)GlcNAc(b1-4)]Man(a1-3)[Gal(b1-4)GlcNAc(b1-2)Man(a1-6)]Man(b1-4)GlcNAc(b1-4)GlcNAc
# Procedure, shortened: as §1
# [17] = molecular target: Gal(b1-4)GlcNAc(b1-2)[Gal(b1-4)GlcNAc(b1-4)]Man(a1-3)[Gal(b1-4)GlcNAc(b1-2)[Gal(b1-4)GlcNAc(b1-6)]Man(a1-6)]Man(b1-4)GlcNAc(b1-4)GlcNAc
# Procedure, shortened: as §1
# [18] = molecular target: Gal(b1-4)GlcNAc(b1-2)[Gal(b1-4)GlcNAc(b1-4)]Man(a1-3)[GlcNAc(b1-4)][Gal(b1-4)GlcNAc(b1-2)Man(a1-6)]Man(b1-4)GlcNAc(b1-4)GlcNAc
# Procedure, shortened: as §1
# [19] = molecular target: Gal(b1-4)GlcNAc(b1-2)[Gal(b1-4)GlcNAc(b1-4)]Man(a1-3)[GlcNAc(b1-4)][Gal(b1-4)GlcNAc(b1-2)[Gal(b1-4)GlcNAc(b1-6)]Man(a1-6)]Man(b1-4)GlcNAc(b1-4)GlcNAc
# Procedure, shortened: as §1
# [20] = molecular target: Gal(b1-4)GlcNAc(b1-2)[Gal(b1-4)GlcNAc(b1-6)]Man(a1-6)[Gal(b1-4)GlcNAc(b1-2)Man(a1-3)]Man(b1-4)GlcNAc(b1-4)GlcNAc
# Procedure, shortened: as §1
# [21] = molecular target: Gal(b1-4)GlcNAc(b1-2)[Gal(b1-4)GlcNAc(b1-6)]Man(a1-6)[Gal(b1-4)GlcNAc(b1-2)Man(a1-3)]Man(b1-4)GlcNAc(b1-4)[Fuc(a1-6)]GlcNAc
# Procedure, shortened: as §1
# [22] = molecular target: Gal(b1-4)GlcNAc(b1-2)[Gal(b1-4)GlcNAc(b1-6)]Man(a1-6)[GlcNAc(b1-4)][Gal(b1-4)GlcNAc(b1-2)Man(a1-3)]Man(b1-4)GlcNAc(b1-4)GlcNAc
# Procedure, shortened: as §1
# [23] = molecular target: Gal(b1-4)GlcNAc(b1-2)[Gal(b1-4)GlcNAc(b1-6)]Man(a1-6)[GlcNAc(b1-4)][Gal(b1-4)GlcNAc(b1-2)[Gal(b1-4)GlcNAc(b1-4)]Man(a1-3)]Man(b1-4)GlcNAc(b1-4)[Fuc(a1-6)]GlcNAc
# Procedure, shortened: as §1
# [24] = molecular target: Gal(b1-4)GlcNAc(b1-3)Gal(b1-3)GalNAc
# Procedure, shortened: as §1
# [25] = molecular target: Gal(b1-4)GlcNAc(b1-3)Gal(b1-3)GlcNAc
# Procedure, shortened: as §1
# [26] = molecular target: Gal(b1-4)GlcNAc(b1-3)Gal(b1-4)Glc
# Procedure, shortened: as §1
# [27] = molecular target: Gal(b1-4)GlcNAc(b1-3)Gal(b1-4)GlcNAc
# Procedure, shortened: as §1
# [28] = molecular target: Gal(b1-4)GlcNAc(b1-3)Gal(b1-4)GlcNAc(b1-2)Man(a1-3)[Gal(b1-4)GlcNAc(b1-3)Gal(b1-4)GlcNAc(b1-2)Man(a1-6)]Man(b1-4)GlcNAc(b1-4)GlcNAc
# Procedure, shortened: as §1
# [29] = molecular target: Gal(b1-4)GlcNAc(b1-3)Gal(b1-4)GlcNAc(b1-2)Man(a1-3)[Gal(b1-4)GlcNAc(b1-3)Gal(b1-4)GlcNAc(b1-2)Man(a1-6)]Man(b1-4)GlcNAc(b1-4)[Fuc(a1-6)]GlcNAc
# Procedure, shortened: as §1
# [30] = molecular target: Gal(b1-4)GlcNAc(b1-3)Gal(b1-4)GlcNAc(b1-2)[Gal(b1-4)GlcNAc(b1-3)Gal(b1-4)GlcNAc(b1-6)]Man(a1-6)[Gal(b1-4)GlcNAc(b1-3)Gal(b1-4)GlcNAc(b1-2)Man(a1-3)]Man(b1-4)GlcNAc(b1-4)GlcNAc
# Procedure, shortened: as §1
# [31] = molecular target: Gal(b1-4)GlcNAc(b1-3)Gal(b1-4)GlcNAc(b1-2)[Gal(b1-4)GlcNAc(b1-3)Gal(b1-4)GlcNAc(b1-6)]Man(a1-6)[Gal(b1-4)GlcNAc(b1-3)Gal(b1-4)GlcNAc(b1-2)Man(a1-3)]Man(b1-4)GlcNAc(b1-4)[Fuc(a1-6)]GlcNAc
# Procedure, shortened: as §1
# [32] = molecular target: Gal(b1-4)GlcNAc(b1-3)Gal(b1-4)GlcNAc(b1-3)Gal(b1-4)GlcNAc
# Procedure, shortened: as §1
# [33] = molecular target: Gal(b1-4)GlcNAc(b1-3)Gal(b1-4)GlcNAc(b1-3)Gal(b1-4)GlcNAc(b1-2)Man(a1-3)[Gal(b1-4)GlcNAc(b1-3)Gal(b1-4)GlcNAc(b1-3)Gal(b1-4)GlcNAc(b1-2)Man(a1-6)]Man(b1-4)GlcNAc(b1-4)GlcNAc
# Procedure, shortened: as §1
# [34] = molecular target: Gal(b1-4)GlcNAc(b1-3)Gal(b1-4)GlcNAc(b1-3)Gal(b1-4)GlcNAc(b1-2)Man(a1-3)[Gal(b1-4)GlcNAc(b1-3)Gal(b1-4)GlcNAc(b1-3)Gal(b1-4)GlcNAc(b1-2)Man(a1-6)]Man(b1-4)GlcNAc(b1-4)[Fuc(a1-6)]GlcNAc
# Procedure, shortened: as §1
# [35] = molecular target: Gal(b1-4)GlcNAc(b1-3)Gal(b1-4)GlcNAc(b1-3)Gal(b1-4)GlcNAc(b1-2)[Gal(b1-4)GlcNAc(b1-3)Gal(b1-4)GlcNAc(b1-3)Gal(b1-4)GlcNAc(b1-6)]Man(a1-6)[Gal(b1-4)GlcNAc(b1-3)Gal(b1-4)GlcNAc(b1-3)Gal(b1-4)GlcNAc(b1-2)Man(a1-3)]Man(b1-4)GlcNAc(b1-4)[Fuc(a1-6)]GlcNAc
# Procedure, shortened: as §1
# [36] = molecular target: Gal(b1-4)GlcNAc(b1-3)Gal(b1-4)GlcNAc(b1-3)Gal(b1-4)GlcNAc(b1-3)Gal(b1-4)GlcNAc(b1-2)Man(a1-3)[Gal(b1-4)GlcNAc(b1-3)Gal(b1-4)GlcNAc(b1-3)Gal(b1-4)GlcNAc(b1-3)Gal(b1-4)GlcNAc(b1-2)Man(a1-6)]Man(b1-4)GlcNAc(b1-4)GlcNAc
# Procedure, shortened: as §1
# [37] = molecular target: Gal(b1-4)GlcNAc(b1-3)Gal(b1-4)GlcNAc(b1-3)Gal(b1-4)GlcNAc(b1-3)Gal(b1-4)GlcNAc(b1-2)Man(a1-3)[Gal(b1-4)GlcNAc(b1-3)Gal(b1-4)GlcNAc(b1-3)Gal(b1-4)GlcNAc(b1-3)Gal(b1-4)GlcNAc(b1-2)Man(a1-6)]Man(b1-4)GlcNAc(b1-4)[Fuc(a1-6)]GlcNAc
# Procedure, shortened: as §1
binder,measurement,setting,value
B1,glycan array binding signal (z-score),[1],-0.254
same,glycan array binding signal (z-score),[2],-0.283
same,glycan array binding signal (z-score),[3],-0.222
same,glycan array binding signal (z-score),[4],-0.366
same,glycan array binding signal (z-score),[5],-0.519
same,glycan array binding signal (z-score),[6],-0.111
same,glycan array binding signal (z-score),[7],0.037
same,glycan array binding signal (z-score),[8],-0.529
same,glycan array binding signal (z-score),[9],-0.491
same,glycan array binding signal (z-score),[10],0.069
same,glycan array binding signal (z-score),[11],-0.444
same,glycan array binding signal (z-score),[12],-0.28
same,glycan array binding signal (z-score),[13],-0.655
same,glycan array binding signal (z-score),[14],-0.609
same,glycan array binding signal (z-score),[15],-0.041
same,glycan array binding signal (z-score),[16],-0.562
same,glycan array binding signal (z-score),[17],-0.088
same,glycan array binding signal (z-score),[18],-0.483
same,glycan array binding signal (z-score),[19],-0.371
same,glycan array binding signal (z-score),[20],0.586
same,glycan array binding signal (z-score),[21],-0.772
same,glycan array binding signal (z-score),[22],-0.085
same,glycan array binding signal (z-score),[23],0.092
same,glycan array binding signal (z-score),[24],-0.544
same,glycan array binding signal (z-score),[25],-0.722
same,glycan array binding signal (z-score),[26],-0.329
same,glycan array binding signal (z-score),[27],-0.11
same,glycan array binding signal (z-score),[28],2.88
same,glycan array binding signal (z-score),[29],-0.412
same,glycan array binding signal (z-score),[30],0.816
same,glycan array binding signal (z-score),[31],0.148
same,glycan array binding signal (z-score),[32],-0.617
same,glycan array binding signal (z-score),[33],4.32
same,glycan array binding signal (z-score),[34],2.13
same,glycan array binding signal (z-score),[35],0.908
same,glycan array binding signal (z-score),[36],0.022
same,glycan array binding signal (z-score),[37],0.005
